Assay results from PubChem BioAssay AID1159614 (National Center for Advancing Translational Sciences (NCATS), 2016).
Out of some 45,000 compounds screened, about 65 (0.1%) were called active. The call rests on the fitted dose curve; in most records, active means well fitted activation curve with a large enough effect; inconclusive means small, poorly fitted or top-dose-only effect; inactive means no such curve, though single readings can be large or run the other way. This is one part of the list.

molecular target: Galactocerebrosidase (Homo sapiens) (UniProt P54803); assay: A Novel Cell-Based Assay to Identify Small Molecules for B -Galactocerebrosidase; details: 145M-Twi-hGALC-G270D cells (Twitcher mouse brain line with human GALC G270D), HMU-beta-Gal fluorescence, 48 h; series mostly up to 57.5 µM; activation: at the top concentration; further: 0% is about no effect; nearly all actives have a fitted effect of over 65% in size
Sequence of UniProt P54803 (P54803 whole entry, looked up): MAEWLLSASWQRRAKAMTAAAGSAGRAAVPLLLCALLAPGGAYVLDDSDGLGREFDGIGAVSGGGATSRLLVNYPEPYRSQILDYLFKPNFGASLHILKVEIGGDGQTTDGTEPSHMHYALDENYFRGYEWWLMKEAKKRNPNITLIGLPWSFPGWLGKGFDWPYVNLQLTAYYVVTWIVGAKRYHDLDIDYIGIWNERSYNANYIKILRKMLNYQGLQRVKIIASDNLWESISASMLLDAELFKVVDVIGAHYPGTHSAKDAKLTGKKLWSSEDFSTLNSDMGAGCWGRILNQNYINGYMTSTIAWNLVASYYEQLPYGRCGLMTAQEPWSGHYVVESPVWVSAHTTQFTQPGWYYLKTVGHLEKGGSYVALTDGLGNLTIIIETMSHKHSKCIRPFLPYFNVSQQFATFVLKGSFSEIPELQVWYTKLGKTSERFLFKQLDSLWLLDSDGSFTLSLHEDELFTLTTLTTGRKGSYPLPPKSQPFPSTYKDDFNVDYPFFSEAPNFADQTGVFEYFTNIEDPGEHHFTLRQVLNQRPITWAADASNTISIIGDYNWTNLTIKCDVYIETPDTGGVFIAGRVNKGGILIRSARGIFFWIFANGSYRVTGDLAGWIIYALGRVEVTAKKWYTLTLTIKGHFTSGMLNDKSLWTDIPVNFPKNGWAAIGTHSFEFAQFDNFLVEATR
How it was run: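 Fluorogenic HMU-b-Gal hydrolysis (0.1 mM final, pH 5.2 citrate-phosphate with 1 mg/mL sodium taurocholate; carbonate stop buffer) measures mutant GALC activity after compound treatment of live 145M-Twi Twitcher brain cells stably carrying human GALC-G270D, with wild-type GALC line alongside; activation sought.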

| SMILES | activation |
| --- | --- |
| CC(C)OCCCNC(=O)Cn1c(-c2cccs2)cc2cc(F)ccc21 | inactive: 0.864% |
| CCOc1cc(C(=O)N2CC(=O)Nc3ccc(F)cc3C2c2ccccc2)cc(OCC)c1OCC (configuration not stated) | inactive: -24.5% |
| COc1ccc(S(=O)(=O)NCC(c2ccco2)S(=O)(=O)c2cccs2)cc1OC (configuration not stated) | inactive: -18.7% |
| CCOc1cc(-c2cc(C(=O)O)c3c(-c4ccccc4)[nH]nc3n2)ccc1O | inactive: -6.9% |
| COc1cc(C(=O)OCc2cc(=O)n3ccsc3n2)cc(OC)c1OC | inactive: -9.54% |
| CCCCCCCCCCCCCCCC(=O)OC(C)C | inactive: -19.7% |
| CCN(C(=O)c1nn(C)c2c1CSc1ccccc1-2)c1cccc(C)c1 | inactive: -7.65% |
| COc1ccc(NC(=O)Cn2nc(C)c3c(C)n(-c4ccccc4)nc3c2=O)cc1OC | inactive: 9.41% |
| CCC1=Nc2cc(C(=O)N3CCC(C)CC3)ccc2Sc2ccc(C)cc21 | inactive: -12.5% |
| Cc1ccc(C)c(NC(=O)C2CCCN2S(=O)(=O)c2ccc3c(c2)CCCC(=O)N3)c1 (configuration not stated) | inactive: -30.6% |
| COc1ccc(-c2noc(CNC(=O)c3ccc(OC)cc3OC)n2)cc1 | inactive: -2.15% |
| CCCC(=O)OCc1cnc(C)c2oc(=O)c(C(=O)Nc3ccc(F)cc3C)cc12 | inactive: -11.5% |
| Cc1cccc(CNC(=O)C2CCN(S(=O)(=O)c3cccc4nonc34)CC2)c1 | inactive: -6.85% |
| CCOC(=O)c1c(NC(=O)COc2ccc(OC)cc2)sc(C(=O)N(CC)CC)c1C | inactive: -17.5% |
| CCCCN(CC)CCNC(=O)c1nn(-c2ccc(OC)cc2)c(=O)c2c1c1ccccc1n2C | inactive: -11.4% |
| COc1cccc(-c2noc(COc3cccc(C)c3C)n2)c1 | inactive: -12.3% |
| CCOc1ccc(CCNC(=O)C2CC(=O)N(CCc3ccc(OC)c(OC)c3)C2)cc1OCC (configuration not stated) | inactive: -21.3% |
| CCN(CC)CCCNC(=O)c1ccc2c(c1)NC(=O)C(CS(=O)(=O)Cc1ccc(F)cc1Cl)N2 (configuration not stated) | inactive: -5.65% |
| CCOC(=O)c1cccc(NC(=O)Cn2cnc3nc4c(cc3c2=O)CCCC4)c1 | inactive: -19.8% |
| COc1ccc(N2CC(c3nc(-c4ccccc4C)no3)CC2=O)cc1Cl (configuration not stated) | inactive: -19% |
| CCNC(=O)NCCCOc1cccc(CN2CCCCC2)c1 | inactive: 5.43% |
| CCc1ccc(NS(=O)(=O)c2ccc3[nH]cc(C(=O)NCCc4ccccc4)c(=O)c3c2)cc1 | inactive: 5.73% |
| COCCNC(=O)c1sc2nc3n(c(=O)c2c1C)CCC3 | inactive: -21.2% |
| CN1CCN(c2ccc(-c3nc(-c4ccccc4)no3)cc2[N+](=O)[O-])CC1 | inactive: -9.77% |
| Cc1cccc(CCNC(=O)CCc2c(C)nc3c(-c4ccc(F)cc4)c(C)nn3c2C)c1 | inactive: -16.6% |

| SMILES | activation |
| --- | --- |
| COC(=O)c1ccc(NC(=O)C(c2ccccc2)N2Cc3ccccc3C2=O)cc1 (configuration not stated) | inactive: -14.7% |
| Cc1nc(-c2ccc(Cl)cc2)sc1CCNC(=O)C(=O)Nc1ccccc1C#N | inactive: -8.15% |
| Cc1ccc(-c2onc(C)c2C)cc1S(=O)(=O)N1CCc2ccccc21 | inactive: 15.7% |
| COc1ccc(NC(=O)Cn2c(SCc3c(F)cccc3Cl)nc3ccncc32)cc1OC | inactive: -9.14% |
| CCCc1ccc(OC(=O)c2sc3ncn(Cc4cccc(F)c4)c(=O)c3c2C)cc1 | inactive: -7.76% |
| CCCCN(C(=O)Nc1ccc(OCC)cc1)C1CCN(C(C)=O)CC1 | inactive: -3.89% |
| COCCn1c(SCC(=O)Nc2ccc(Br)cc2)nc2c([nH]c3ccccc32)c1=O | inactive: -11.5% |
| Cc1cc(C)cc(NC(=O)C2CCCN(c3nnc(-n4c(C)ccc4C)s3)C2)c1 (configuration not stated) | inactive: -6.74% |
| COc1ccc(N2CCN(C(=O)c3cc4c(s3)-c3c(C)cccc3OC4)CC2)cc1 | inactive: -24.6% |
| COc1ccccc1CSc1nc2n(n1)C(c1ccccc1)C(C(=O)Nc1ccc(C)cc1)=C(C)N2 (configuration not stated) | inactive: -12.1% |
| CCC(Sc1nc2n[nH]c(C)c2c(=N)n1-c1ccc(Br)cc1)C(=O)N(CC)CC (configuration not stated) | inactive: -30.9% |
| CCOC(=O)c1c(S(=O)(=O)N2CCN(c3cc(Cl)ccc3C)CC2)c(C)n(C)c1C | inactive: -22% |
| Cc1ccc(NC(=O)C2CCCN(S(=O)(=O)c3ccc(C)cc3)C2)cc1 (configuration not stated) | inactive: -9.61% |
| CCN(CC)c1ccc(NC(=O)C2CCCN(S(=O)(=O)c3ccc4c(c3)oc(=O)n4C)C2)c(C)c1 (configuration not stated) | inactive: -1.62% |
| COC(=O)/C=C(/C)N | inactive: -6.02% |
| Cc1ccc(NC(=O)Cn2nc(-c3ccc(Cl)cc3)c3ccccc3c2=O)cc1 | inactive: -10.9% |
| COc1ccc(NC(=O)Cn2ncc3c4ccccc4n(Cc4ccccc4)c3c2=O)cc1OC | inactive: -8.54% |
| COc1cc(NS(=O)(=O)c2ccc3c(c2)OCC(C(=O)N2CCCC2)O3)cc(OC)c1 (configuration not stated) | inactive: -13.2% |
| COc1ccccc1-c1ncnn1-c1sc2c(c1C#N)CCCCC2 | inactive: -25.4% |
| O=c1oc2c(F)cc(F)cc2cc1S(=O)(=O)c1ccc(F)cc1 | inactive: -16.2% |
| Cc1ccc(Cc2nc3ccccc3nc2SCC(=O)N2CCCCC2)cc1 | inactive: -10.5% |
| CCOc1ccccc1NC(=O)c1c(NCc2ccc(C)o2)sc2c1CCCCC2 | inactive: -18.2% |
| Cc1nc(C)c(CCNS(=O)(=O)c2ccc(C)c(C)c2)s1 | inactive: -39.4% |
| CCOc1ccc(N(CC)C(=O)c2cc3c(=O)oc4ccccc4c3s2)cc1 | inactive: -4.56% |
| CCOc1ccc(CN2CCN(S(=O)(=O)c3ccc(Cl)cc3)CC2)cc1 | inactive: -7.05% |

| SMILES | activation |
| --- | --- |
| CCOc1ccc(-c2nonc2NC(=O)c2oc3ccc(Cl)cc3c2C)cc1 | inactive: -7.11% |
| Cc1cccc(NC(=O)C(=O)NCC(c2cccnc2)N2CCc3ccccc32)c1C (configuration not stated) | inactive: -14.4% |
| CCOC(=O)c1cc(=O)c2c(OCC(COc3cccc4oc(C(=O)OCC)cc(=O)c34)OC(=O)[C@@H](N)CCCCN)cccc2o1 | inactive: -5% |
| Cc1oc(-c2ccccc2F)nc1CN1CCC(C(=O)NCCc2ccc(Cl)cc2)CC1 | inactive: -22.7% |
| O=C(Cn1cc(S(=O)(=O)c2ccc(F)cc2)c(=O)c2cc3c(cc21)OCO3)Nc1ccccc1 | inactive: -6.31% |
| Cc1ccn2c(=O)c(C(=O)Nc3ccc(F)c(C(F)(F)F)c3)cnc2c1 | inactive: -7.78% |
| CC1=C(C(=O)Nc2ccc(C)cc2C)C(CC(C)C)n2nc(SCc3ccccc3C)nc2N1 (configuration not stated) | inactive: -21.6% |
| COC(=O)c1ccccc1NC(=O)CCCn1nc(C)c2sc3ccccc3c2c1=O | inactive: -7.92% |
| COc1cccc(NC(=O)c2oc3ccccc3c2NC(=O)COc2ccccc2C)c1 | inactive: 8.5% |
| COc1ccc(-c2nnn3c2nc(NCc2ccccc2)c2ccccc23)cc1 | inactive: -9.88% |
| Cc1cc(C)n2nc(SCC(=O)Nc3ccc(O)cc3)nc2n1 | inactive: -16.4% |
| Cc1ccc(NC(=O)CSc2ncccc2C(=O)Oc2ccccc2Cl)cc1Cl | inactive: -10.2% |
| COc1ccc2[nH]cc(CCNC(=O)Nc3c(C)cccc3C)c2c1 | inactive: -21.7% |
| CCc1cccc(CC)c1NC(=O)CCS(=O)(=O)c1ccc(Br)cc1 | inactive: 4.39% |
| O=c1c2sc3ccccc3c2n(Cc2ccc(F)cc2)c(=O)n1Cc1ccccc1 | inactive: 5.72% |
| COc1ccc(-c2ccc(NS(=O)(=O)c3ccccc3)cc2)nn1 | inactive: 2.98% |
| CCOc1ccc(-c2cc(C(=O)NCc3ccc(OCC)c(OC)c3)[nH]n2)cc1 | inactive: -13.6% |
| CCc1ccc(NC(=O)Cn2c(=O)n(CCCC(=O)NCc3ccccc3OC)c(=O)c3ccccc32)cc1 | inactive: -2.17% |
| COc1cc(-c2nc(Cn3nnc(C(=O)Nc4ccccc4C)c3C)c(C)o2)cc(OC)c1OC | inactive: -14.6% |
| CCOC(=O)c1cc(-c2ccccc2)n(CCC(=O)Nc2ccc(OC)c(Cl)c2)c1C | inactive: -24.3% |
| COc1cc(C)ccc1OCCSc1nc2ccc(NC(=O)c3ccc4c(c3)OCO4)cc2s1 | inactive: -6.58% |
| Cc1ccccc1-c1nc2c(c(SCc3cccc(Cl)c3)n1)Cc1c(CO)cnc(C)c1O2 | inactive: -8.07% |
| Cc1cc(NC(=O)CN(C)S(=O)(=O)c2ccc3c(c2)CCCC(=O)N3)ccc1Br | inactive: -35.4% |
| Clc1cccc(N2CCN(c3nc4ccccc4c4nc(-c5cccnc5)nn34)CC2)c1 | inactive: -18.6% |
| CC(=O)N1c2ccc(S(=O)(=O)N3CCCCCC3)cc2CC1C(=O)NCc1cccc(F)c1 (configuration not stated) | inactive: -22.1% |

| SMILES | activation |
| --- | --- |
| CNC1CCCN(c2c(F)cc3c(=O)c(C(=O)O)cn(C4CC4)c3c2OC)C1 (configuration not stated) | inactive: -13.4% |
| COc1ccc(C)cc1NC(=O)c1ccc2c(c1)N(Cc1cccc(Cl)c1)C(=O)c1ccccc1S2=O (configuration not stated) | inactive: 7.09% |
| Cc1ccc(C)c(NC(=O)c2ccc(=O)n(Cc3ccc(F)cc3)c2)c1 | inactive: -9.47% |
| CCOC(=O)c1noc2ncn(CC(=O)Nc3ccc(OC)c(Cl)c3)c(=O)c12 | inactive: -15.9% |
| CCOc1ccc(CC(=O)NCCS(=O)(=O)N2CCN(c3ccccc3OC)CC2)cc1 | inactive: -19.3% |
| CCCCC(=O)Nc1cc(-c2nc3ccccc3o2)ccc1OC | inactive: 6.12% |
| CCS(=O)(=O)N1CCc2cc(C(=O)N3CCN(c4ccccc4)CC3)ccc21 | inactive: -21.5% |
| Cc1ccc(S(=O)(=O)c2nc(-c3cccs3)oc2SC(C)c2ccccc2)cc1 (configuration not stated) | inactive: -11.7% |
| CC(C)CCNC(=O)c1ccc(Cn2c(=O)c3cccn3c3cccnc32)cc1 | inactive: -2.87% |
| Cc1ccccc1Nc1c(-c2cccc(O)c2)nc2ccc(Br)cn12 | inactive: -28.3% |
| O=S(=O)(NCc1ccc(F)cc1)c1ccc2[nH]c3c(c2c1)CCCCC3 | inactive: -8.18% |
| CCOC(=O)c1nc(Nc2ccc(OC)cc2)c2ccccc2n1 | inactive: -6.65% |
| Cc1sc(C2C(C#N)=C(N)N(c3cccc(Cl)c3)C3=C2C(=O)CCC3)cc1CN1CCOCC1 (configuration not stated) | inactive: -14% |
| Cc1ccc(CNC(=O)c2cc(S(=O)(=O)N3CCCC(C)C3)cn2C)cc1 (configuration not stated) | inactive: -26.3% |
| Cc1ccc(-c2nn(-c3cccc([N+](=O)[O-])c3)c3c2cnc2ccc(F)cc23)cc1 | inactive: 0.501% |
| COc1cc(OC)c(NC(=O)CSC2=Nc3ccccc3N=C(c3ccc(F)cc3)C2)cc1Cl | inactive: -3.83% |
| CCOc1ccc(CNC(=O)c2ccc3c(c2)sc2nc(-c4ccc(OC)cc4)cn23)cc1 | inactive: -18.3% |
| Cc1cc2c(n1-c1ccc(C(=O)NCC(C)c3ccccc3)cc1)CCCC2 (configuration not stated) | inactive: -21.8% |
| Cc1cccc(Nc2nc(Nc3cccc(C)c3)nc(N3CCOCC3)n2)c1 | inactive: -22.1% |
| Cc1ccc2oc(-c3ccc(C)c(NC(=O)c4ccc5c(c4)OCCO5)c3)nc2c1 | inactive: -24.3% |
| CCOc1cccc(C(=O)Nc2ccc3oc(-c4ccc(C(C)(C)C)cc4)nc3c2)c1 | inactive: -7.11% |
| COc1ccc(NC(=O)Cn2c(=O)n(-c3cccc(C)c3)c(=O)c3c2c2cc(C)ccc2n3C)cc1OC | inactive: -16.7% |
